This note sets out measurements from patent publication US20220226313A1, “COMBINATION THERAPIES THAT INCLUDE AN AGENT THAT PROMOTES GLUCOSE OXIDATION AND AN INHIBITOR OF PYRUVATE DEHYDROGENASE KINASE” (IMBRIA PHARMACEUTICALS, INC., priority 2019, published 2022).

For the data set, the target named is Potassium Channel hERG (Homo sapiens, UniProt Q12809). Nature of the data set: in vitro.

Some results are limits rather than exact numbers.

Chain of UniProt Q12809 (Q12809 whole entry): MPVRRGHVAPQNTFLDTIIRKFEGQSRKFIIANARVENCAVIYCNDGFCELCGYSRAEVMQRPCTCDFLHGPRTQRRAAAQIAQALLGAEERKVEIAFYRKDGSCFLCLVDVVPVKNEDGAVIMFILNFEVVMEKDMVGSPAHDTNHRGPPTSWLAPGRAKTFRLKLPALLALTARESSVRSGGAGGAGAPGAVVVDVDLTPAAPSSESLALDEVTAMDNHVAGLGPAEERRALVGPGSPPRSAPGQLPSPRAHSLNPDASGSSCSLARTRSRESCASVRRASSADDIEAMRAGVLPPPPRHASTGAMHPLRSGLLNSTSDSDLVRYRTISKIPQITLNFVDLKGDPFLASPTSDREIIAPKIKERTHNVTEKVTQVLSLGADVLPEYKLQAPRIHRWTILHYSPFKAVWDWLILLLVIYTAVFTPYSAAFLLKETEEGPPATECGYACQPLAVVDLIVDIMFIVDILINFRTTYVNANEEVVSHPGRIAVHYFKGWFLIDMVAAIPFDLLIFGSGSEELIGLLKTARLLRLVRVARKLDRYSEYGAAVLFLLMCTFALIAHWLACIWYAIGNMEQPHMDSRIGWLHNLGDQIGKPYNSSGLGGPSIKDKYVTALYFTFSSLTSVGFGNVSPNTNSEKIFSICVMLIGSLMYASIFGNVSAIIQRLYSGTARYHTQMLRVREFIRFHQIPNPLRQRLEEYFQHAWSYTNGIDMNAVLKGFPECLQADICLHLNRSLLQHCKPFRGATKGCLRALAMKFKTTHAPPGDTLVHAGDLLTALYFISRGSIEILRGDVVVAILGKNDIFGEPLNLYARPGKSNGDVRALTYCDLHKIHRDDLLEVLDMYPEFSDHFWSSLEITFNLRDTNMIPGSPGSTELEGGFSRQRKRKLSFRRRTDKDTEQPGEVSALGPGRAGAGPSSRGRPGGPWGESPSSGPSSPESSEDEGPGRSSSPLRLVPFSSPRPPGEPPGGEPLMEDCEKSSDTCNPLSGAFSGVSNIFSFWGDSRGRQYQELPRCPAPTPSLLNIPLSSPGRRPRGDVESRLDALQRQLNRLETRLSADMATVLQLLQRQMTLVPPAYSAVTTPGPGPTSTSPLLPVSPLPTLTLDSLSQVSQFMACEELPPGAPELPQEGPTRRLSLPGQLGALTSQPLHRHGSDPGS

Regarding `COc1ccc(CN2CCN(CCO)CC2)c(OC)c1OC` [CV-8814, 2-(4-(2,3,4-trimethoxybenzyl)piperazin-1-yl)ethan-1-ol], the inhibition (usually how much of the control response was suppressed) at 10 µM is under 50%.
